Measurements as given in patent US20110021424A1 (published 2011).

Legend:
Assay in all cases: dot blot
[1] = biological target: alpha-1 acid glycoprotein (RDI, #RDI-SCP-153-1) (human, UniProt P02763 19-201)
[2] = biological target: neutravidin (Pierce, #31000) (UniProt P02701 25-152)
[3] = biological target: T1, haptoglobulin (RDI, #RDI-SCP-119-1) (human, UniProt P00738 19-406, limits assumed)
T1 sequence (looked up): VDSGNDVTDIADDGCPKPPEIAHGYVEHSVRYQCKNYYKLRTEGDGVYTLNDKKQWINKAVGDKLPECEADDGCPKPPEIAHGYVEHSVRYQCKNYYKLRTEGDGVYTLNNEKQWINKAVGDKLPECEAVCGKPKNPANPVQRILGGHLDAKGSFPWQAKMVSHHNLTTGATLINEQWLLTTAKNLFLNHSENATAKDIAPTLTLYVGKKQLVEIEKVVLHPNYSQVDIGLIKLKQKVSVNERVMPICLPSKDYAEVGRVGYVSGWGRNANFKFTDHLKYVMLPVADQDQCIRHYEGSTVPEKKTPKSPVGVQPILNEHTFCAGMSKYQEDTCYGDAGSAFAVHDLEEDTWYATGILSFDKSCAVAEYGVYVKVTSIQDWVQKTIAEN

[4] = biological target: T2, fibrinogen (Enzyme research, #031015E) (human, UniProt P02671 20-630; P02675 31-491; P02679 27-433, Native plasma fibrinogen is a disulfide-linked dimer of alpha-beta-gamma trimers, (AαBβγ)2, and is glycosylated. One copy of each chain is given.)
T2 construct: Several chains
T2 sequence (alpha): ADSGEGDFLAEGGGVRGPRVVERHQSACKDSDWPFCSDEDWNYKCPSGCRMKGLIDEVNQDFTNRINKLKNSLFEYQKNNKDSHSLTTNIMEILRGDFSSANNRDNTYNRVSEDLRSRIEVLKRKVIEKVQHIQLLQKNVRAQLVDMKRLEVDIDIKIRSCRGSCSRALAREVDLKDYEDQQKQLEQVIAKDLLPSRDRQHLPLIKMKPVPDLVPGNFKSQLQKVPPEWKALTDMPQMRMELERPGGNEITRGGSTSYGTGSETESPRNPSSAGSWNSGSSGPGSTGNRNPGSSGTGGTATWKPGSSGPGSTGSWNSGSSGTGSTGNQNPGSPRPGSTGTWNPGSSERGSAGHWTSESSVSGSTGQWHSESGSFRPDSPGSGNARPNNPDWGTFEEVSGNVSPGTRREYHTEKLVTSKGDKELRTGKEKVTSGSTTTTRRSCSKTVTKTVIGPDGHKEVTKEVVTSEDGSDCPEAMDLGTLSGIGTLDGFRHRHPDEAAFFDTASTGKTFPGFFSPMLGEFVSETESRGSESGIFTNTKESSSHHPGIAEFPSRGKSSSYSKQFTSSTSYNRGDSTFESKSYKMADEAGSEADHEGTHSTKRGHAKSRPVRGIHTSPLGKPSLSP
T2 sequence (beta): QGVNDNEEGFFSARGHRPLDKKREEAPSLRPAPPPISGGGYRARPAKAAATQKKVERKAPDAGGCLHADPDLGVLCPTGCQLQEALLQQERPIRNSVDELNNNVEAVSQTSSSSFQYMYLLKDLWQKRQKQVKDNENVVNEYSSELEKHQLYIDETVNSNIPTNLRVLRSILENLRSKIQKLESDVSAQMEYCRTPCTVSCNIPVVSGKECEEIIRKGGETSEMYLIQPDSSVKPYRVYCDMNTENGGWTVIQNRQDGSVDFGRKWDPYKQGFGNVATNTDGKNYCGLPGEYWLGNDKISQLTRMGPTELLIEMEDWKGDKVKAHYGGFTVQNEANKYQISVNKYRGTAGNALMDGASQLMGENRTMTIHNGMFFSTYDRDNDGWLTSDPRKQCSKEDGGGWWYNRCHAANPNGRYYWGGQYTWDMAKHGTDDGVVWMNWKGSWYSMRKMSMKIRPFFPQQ
T2 sequence (gamma): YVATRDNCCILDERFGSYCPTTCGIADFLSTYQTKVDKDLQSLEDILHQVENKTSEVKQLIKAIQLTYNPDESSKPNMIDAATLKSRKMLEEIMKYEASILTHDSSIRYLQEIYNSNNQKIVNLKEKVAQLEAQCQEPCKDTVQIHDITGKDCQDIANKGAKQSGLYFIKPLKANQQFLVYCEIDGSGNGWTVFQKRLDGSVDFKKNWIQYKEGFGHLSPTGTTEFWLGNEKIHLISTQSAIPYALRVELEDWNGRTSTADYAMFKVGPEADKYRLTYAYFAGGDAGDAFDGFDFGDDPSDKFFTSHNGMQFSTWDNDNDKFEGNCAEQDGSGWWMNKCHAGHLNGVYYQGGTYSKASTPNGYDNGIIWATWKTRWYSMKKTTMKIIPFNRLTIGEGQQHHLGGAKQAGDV

[5] = biological target: T3, alpha-1 antichymotrypsin (RDI, #RDI-SCP-159-0) (human, UniProt P01011 24-423)
T3 sequence (looked up): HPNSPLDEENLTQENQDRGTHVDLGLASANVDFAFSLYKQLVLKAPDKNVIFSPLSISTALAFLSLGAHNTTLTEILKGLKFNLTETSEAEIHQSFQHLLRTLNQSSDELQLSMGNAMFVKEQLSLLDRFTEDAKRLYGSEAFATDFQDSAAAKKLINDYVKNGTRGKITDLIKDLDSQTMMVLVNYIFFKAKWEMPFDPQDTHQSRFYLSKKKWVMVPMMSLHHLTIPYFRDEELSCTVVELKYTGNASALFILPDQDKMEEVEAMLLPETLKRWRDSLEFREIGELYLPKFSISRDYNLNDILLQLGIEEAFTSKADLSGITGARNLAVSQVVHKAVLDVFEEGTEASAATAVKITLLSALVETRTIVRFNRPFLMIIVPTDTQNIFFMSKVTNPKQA

[6] = biological target: alpha-1-antitrypsin (RDI, #RDI-SCP-165-5) (human, UniProt P01009 25-418)
[7] = biological target: holo-transferrin (Sigma, #T0665) (human, UniProt P02787 20-698)

Measured: binding result

B1: His6-(Z02465)2-Cys (designed binder)
chain: MGSSHHHHHHLQVDNKFNKELIEAAAEIDALPNLNRRQWNAFIKSLVDDPSQSANLLAEAKKLNDAQAPKVDNKFNKELIEAAAEIDALPNLNRRQWNAFIKSLVDDPSQSANLLAEAKKLNDAQAPKVDC
notes: also called Z02465 (dimer)
no binding: all assays above

B2: His6-(Z02483)2-Cys (designed binder)
chain: MGSSHHHHHHLQVDNKFNKELVKAAAEIDALPNLNRRQWNAFIKSLVDDPSQSANLLAEAKKLNDAQAPKVDNKFNKELVKAAAEIDALPNLNRRQWNAFIKSLVDDPSQSANLLAEAKKLNDAQAPKVDC
notes: also called Z02483 (dimer)
no binding: all assays above
